“And” between values parts separate entries of the source, which are not always exact repeats. Identical values can stand only once. Inconclusive means that the source gave no clear call. Such entries were picked first, then a sample of the others. Where the call is inconclusive, the potency comes from a doubtful curve fit. Where a structure was tested more than once in an assay, its records may differ in their call. The source made the active and inactive calls. The call rests on the fitted dose curve; in most records, active means well fitted inhibition curve with a large enough effect; inconclusive means small, poorly fitted or top-dose-only effect; inactive means flat fitted curve, though single readings scatter.
assay: qHTS for Inhibitors of Plasmodium falciparum (DD2) proliferation (AID 504314); conditions: P. falciparum Dd2 in erythrocytes, SYBR Green growth, 72 h; series mostly up to 6.11 µM; activity, negative = inhibition: at the top concentration
Excerpt: Plasmodium falciparum is a virulent malarial parasite that kills 1-2 million people worldwide each year. Malaria not only inflicts tremendous suffering and morbidity on the human population, but has dramatically influenced the course of civilization with profound sociological and economic implications (Shah, S. 2010). Transmitted by mosquitoes, the sporozoite form of the parasite enters the blood stream to infect hepatocytes, where they become merozoites that infect red blood cells (erythrocytes). Within erythrocytes, merozoites begin a […] cycle of growth and division, after which the parasite is released to infect new red blood cells. Gametocytes, which form within erythrocytes as well, circulate in the bloodstream and are ingested by the mosquito, thereby completing the life cycle (see CDC website). To profile malarial lines for differential chemical responses and to identify inhibitors of malarial growth, an assay that measures P. falciparum growth and replication within erythrocytes was employed. This assay uses a DNA binding fluorescent dye (SYBR Green) to detect parasite DNA following cell lysis. Because mature erythrocytes lack DNA, only Plasmodium-derived DNA is detected. The P. falciparum line cp250, derived from a malarial isolate from Cambodia, (Mu, J., et al. 2010) was added to the panel of lines, Dd2, HB3, 7G8 and GB4 in this study.
Laboratory of Assay Development and Screening Technology [ADST] and NIH Chemical Genomics Center [NCGC]
Boston University, Chemistry Department, Center for Chemical Methodology and Library Development [CMLD-BU]
NIH National Institute of Allergy and Infectious Diseases [NIAID]
ADST Assay Protocol Summary:
The 1536-well SYBR Green viability assay was based on the method of Bennett et al (2004) and described previously in 1536-well format (Yuan J., et al. 2009). For screening 3 ul culture medium was dispensed into 1536 well black clear bottom plates (Aurora Biotechnologies) using a Multidrop Combi (Thermo Fisher Scientific Inc.), 23 nL compounds in DMSO were added by a pin transfer (Cleveland, P.H. and Koutz, P.J, 2005) using a pin tool-based delivery system (Kalypsys), and 5 ul of erythrocytes infected with P. falciparum one of five lines (cp250, Dd2, HB3, 7G8 or GB4, 0.3% parasitemia, 2.5% hematocrit final concentration) were added. The plates were incubated at 37C in a humidified incubator in 5% CO2 for 72 h, and 2 ul lysis buffer (20 mM Tris HCl, 10 mM EDTA, 0.16% saponin, 1.6% triton X, 10X SYBR Green I (supplied as 10,000X final concentration by Invitrogen) was added to each well. The plates were mixed for 25 sec with gentle shaking and incubated overnight at room temperature in the dark. The following morning, fluorescence intensity at 485(14) nm excitation and 535(25) nm emission wavelengths was measured on an EnVision (Perkin Elmer) plate reader. Plate reads were normalized relative to the control inhibitor (0.29 uM artemisinin) and vehicle (DMSO) wells present on each plate and then corrected by an algorithm using vehicle-only control plates at the beginning and end of the compound plate stack.
Shah, S. (2010). The Fever: how malaria has ruled humankind for 500,000 years. New York, Sarah Crichton Books.
CDC web site, http://www.cdc.gov/malaria/about/biology/index.html
Mu, J., Myers, R.A., Jiang, H., Liu, S., Ricklefs, S., Waisberg, M., Chotivanich, K., Wilairatana, P., Krudsood, S., White, N.J., et Plasmodium falciparum genome-wide scans for positive selection, recombination hot spots and resistance to antimalarial drugs Nature Genetics 2010, 42, pp 268-271
Bennett TN, Paguio, M., Gligorijevic, B., Seudieu, C., Kosar, A. D., Davidson, E., and Roepe, P. D. Novel, rapid, and inexpensive cell-based quantification of antimalarial drug efficacy Antimicrobial Agents Chemother. 2004, 48(5): pp 1807-10
Yuan J, Johnson RL, Huang RL, Wichterman J, Jiang HY, Hayton K, Fidock DA, Wellems TE, Inglese J, Austin CP, Su XZ. […]
Potency means the concentration at half of the fitted maximal effect; tags describe the fitted curve by direction and shape.

| Compound | Potency | activity, negative = inhibition |
| --- | --- | --- |
| CCCC[C@]12Cc3c(ccc4ccccc34)[C@H](O1)C1=C(O2)C(=O)c2ccccc2C1=O | active: 1.69 µM | – |
| CC(=O)C1=C(C)N(Cc2ccccc2)C(=O)NC1CCc1ccccc1 (stereo unspecified) | inconclusive: 4.24 µM [inhibitor, single point] and inconclusive: 4.75 µM [inhibitor, partial curve, poor fit] | – |
| Nc1ccccc1C(=O)C=Cc1ccc2c(c1)OCO2 | inconclusive: 4.24 µM [inhibitor, single point] and inconclusive: 3.78 µM [inhibitor, partial curve, poor fit] | – |
| CC1(OC(=O)C2CCCC2)C(=O)C=C2C=C3CCCCN3C=C2C1=O (stereo unspecified) | inconclusive: 4.24 µM [inhibitor, single point] | – |
| C[C@H]1Cc2c(COc3ccccc3)nc3c(c2CO1)CN(C(=O)Nc1cccc(C#N)c1)CC3 | inconclusive: 2.12 µM [inhibitor, partial curve] | – |
| C[C@@H]1CC[C@H]2C(=O)N(Cc3ccccc3)C[C@H](O)CN2[C@H]1c1ccc(Br)cc1 | inconclusive: 1.5 µM [inhibitor, single point] | – |
| C[C@H]1C[C@@H](C)O[C@@]2(C1)C(=O)N(Cc1ccccc1C(F)(F)F)c1ccccc12 | inconclusive: 4.24 µM [inhibitor, single point] | – |
| COC(=O)CC1c2ccccc2C=C(C)N1C(=O)OC (stereo unspecified) | inactive | – |
| COc1ccc2ccccc2c1-c1c(OC)ccc2ccccc12 | inactive | – |
| COc1ccc(-c2nc(-c3ccccc3)c(Nc3c(C)cccc3C)o2)cc1 | inconclusive: 3.36 µM [inhibitor, single point] | – |
| COc1ccc(O[C@H]2C=C[C@@H](c3ccccc3)O[C@H]2CON=C(C)CCN2CCCc3nc(C)c(C)cc32)cc1 | inconclusive: 1.89 µM [inhibitor, partial curve] | – |
| COC(=O)CC=C[C@@H](C)[C@H](OC)c1ccccc1Br | active: 1.5 µM | – |
| CC(=O)OC[C@H]1O[C@H](C#Cc2ccc(C(C)(C)C)cc2)C=C[C@H]1OC(C)=O | inconclusive: 1.69 µM [inhibitor, single point] | – |
| COc1cc2c(cc1OC)[C@@H]1O[C@](c3ccsc3)(C2)Oc2cc(C)n(Cc3ccccc3)c(=O)c21 | inconclusive: 2.12 µM [inhibitor, single point] | – |
| Cc1c(O)c(=O)ccn1C | – | inactive: 0.949% |
| CC(Nc1oc(-c2ccccc2)nc1-c1ccccc1)c1ccccc1 (stereo unspecified) | inactive and inconclusive: 3.78 µM [inhibitor, partial curve, poor fit] | – |
| CC1(C)O[C@@H](C(O)(c2cc(F)c(F)c(F)c2)c2cc(F)c(F)c(F)c2)[C@H](C(O)(c2cc(F)c(F)c(F)c2)c2cc(F)c(F)c(F)c2)O1 | active: 0.671 µM | – |
| CC(C)Nc1oc(-c2ccccc2)nc1C=Cc1ccccc1 | inconclusive: 1.34 µM [inhibitor, partial curve] | – |
| Cc1ccccc1Nc1oc(-c2ccccc2)nc1CCc1ccccc1 | inconclusive: 3 µM [inhibitor, single point] | – |
| CC1(C)CC(=O)C2=C(C1)O[C@@]1(CCCCN3C(=O)c4ccccc4C3=O)Cc3ccccc3[C@H]2O1 | inconclusive: 1.69 µM [inhibitor, partial curve] | – |

| Compound | Potency | activity, negative = inhibition |
| --- | --- | --- |
| CCCCc1nc2c(c3c1C[C@H](C)OC3)CN(C(=O)NCc1ccco1)CC2 | inactive | – |
| CCCCCCCc1cc2ccccc2c2c(C(=O)OC)c(-c3ccccc3)c(C(=O)OC)n12 | inconclusive: 0.267 µM [activator, partial curve, poor fit] | – |
| CCN1C(=S)NC(c2cccs2)C(C(=O)OC)=C1C (stereo unspecified) | inconclusive: 0.0119 µM [inhibitor, full curve, poor fit] | – |
| c1ccc(CNc2oc(-c3ccccc3)nc2-c2cccc3ccccc23)cc1 | inconclusive: 3.78 µM [inhibitor, single point] and inconclusive: 3 µM [inhibitor, single point] | – |
| CCOC(=O)CCN1C(=O)[C@@H]2[C@H]3[C@H](O)[C@H](O)CC(=NOCc4ccccc4)[C@@H]3CC[C@H]2C1=O | inconclusive: 1.69 µM [inhibitor, partial curve, poor fit] | – |
| COC(=O)CC1c2ccccc2C(Cc2ccc3c(c2)OCO3)=C(C)N1C(=O)OC (stereo unspecified) | inconclusive: 3.36 µM [inhibitor, partial curve, poor fit] | – |
| CCOC(=O)CCCNC(=O)N1CCc2nc(-c3ccc(OC)cc3C)c3c(c2C1)CO[C@@H](c1ccccc1)C3 | inconclusive: 1.5 µM [inhibitor, partial curve] | – |
| O=C1C=CC2(OCCCO2)C(Br)=C1CO | inconclusive: 1.69 µM [inhibitor, partial curve, poor fit] | – |
| CCCCc1nc2c(c3c1C[C@H](C)OC3)CN(S(=O)(=O)c1ccc(C)cc1)CC2 | inactive | – |
| CC[C@H](C)[C@@H](NC(=O)O[C@@H]1C(=O)c2cc(Br)ccc2O[C@H]1c1cccc(OC)c1)C(=O)OC | – | inactive: -2.92% |
| CCOC(=O)OC[C@H]1O[C@H](c2ccccc2)C=C[C@H]1OC(=O)OCC | – | inactive: -3.14% |
| COc1cc2c(cc1OC)[C@@H]1O[C@](CCCCN3C(=O)c4ccccc4C3=O)(C2)Oc2cc(C)n(-c3ccccc3)c(=O)c21 | active: 1.69 µM | – |
| COC(=O)CCCC1=CC2=C(c3ccccc3)C(=O)C(C)(OC(=O)C3CCCC3)C(=O)C2=CN1C(CO)CO (stereo unspecified) | inconclusive: 0.165 µM [inhibitor, partial curve, poor fit] | – |
| COc1ccc(-c2nc(-c3ccccc3)c(Nc3ccc4ccccc4c3)o2)cc1 | inconclusive: 3.78 µM [inhibitor, single point] | – |
| O=C1c2cc(Br)ccc2O[C@@H](c2ccc3c(c2)OCO3)[C@@H]1O | – | inactive: -3.66% |
| CCN1C(=NCc2ccc3c(c2)OCO3)NC(CCc2ccccc2)C(C(=O)OC)=C1C (stereo unspecified) | – | inactive: -5.77% |
| C=C(C)C(=O)c1ccc2c(c1)OCO2 | – | inactive: 0.0177% |
| CC1(OC(=O)C2CCCC2)C(=O)C=C2C=C(c3ccsc3)N(CCCCO)C=C2C1=O (stereo unspecified) | inactive | – |
| COC[C@@H](O)[C@@H](OC)[C@H](OC)[C@H](Cc1c(OC)cc(OC)cc1OC)OC | – | inactive: 1.85% |
| COCCN1C(=O)N[C@@H](c2cccc(C(F)(F)F)c2)[C@@H](C(=O)OC)[C@H]1C | inconclusive: 0.015 µM [inhibitor, full curve, poor fit] | inactive: 0.477% [at 1.12 µM] |
